Hit rate of the full screen: of about 43,000 compounds, about 200 (0.47%) were called active. Roughly 12% stayed inconclusive and do not appear here. Calls come from the whole dose curve; as a rule, active = well fitted cell-killing curve with a large enough effect; inconclusive = small, poorly fitted or top-dose-only effect, or effect the other way; inactive = flat fitted curve, though single readings scatter. The list shows a part of the results.
Assay: Cell viability qHTS assay in S16 Pmp22-F2sN cells; note: nearly all actives have a fitted effect of over 65% in size
Details: S16 Pmp22-F2sN Schwann cells viability, CellTiter-Glo, 24 h; series mostly up to 57.5 µM; activity change, negative = cytotoxicity: at the top concentration
In short: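 S16 Pmp22-F2sN Schwann cells (500-1,000/well) in phenol-red-free DMEM with 10% FBS received 23 nL compound by pin tool for 24 h at 37 °C. Viability was then read as CellTiter-Glo luminescence after 15 min at room temperature.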
% is set by controls: 0 for no effect and ±100 for the full control effect.

Compound	activity change, negative = cytotoxicity
Cc1ccc2cccc(NC(=O)C(C)Oc3ccc(Cl)cc3Cl)c2n1 (stereo unspecified)	inactive: 0.673%
CCOc1ccc(C(c2c(O)cc(C)n(Cc3ccco3)c2=O)N2CCCCC2)cc1 (stereo unspecified)	inactive: 0.312%
COc1cccc(CNS(=O)(=O)c2ccc3c(c2)C(C(C)C)C(=O)N3)c1 (stereo unspecified)	inactive: -24.8%
Cc1ccc(NC(=O)CC2Sc3ccc(C(F)(F)F)cc3NC2=O)cc1 (stereo unspecified)	inactive: -16.9%
Cc1cc(-c2ccccc2)n2nc(-c3ccccc3)cc2n1	inactive: 4.17%
Cc1c(C(=O)O)oc2c1-c1nn(Cc3ccc(Cl)cc3)cc1CC2	inactive: -6.22%
CN(C)CCNC(=O)C(=O)NCC(c1ccc2c(c1)OCO2)N1CCOCC1 (stereo unspecified)	inactive: 2.45%
Cc1ccc(OCCSc2nc(C)c(Cc3ccccc3)c(=O)[nH]2)cc1	inactive: 12.4%
Cc1cc(C)c(NC(=O)CSc2nncn3c2cc2oc(C)cc23)c(C)c1	inactive: 1.66%
COc1ccc(CNC(=O)Nc2cn(CC(C)C)c(=O)c3ccccc23)cc1	inactive: -9.29%
CC(=O)c1ccc(NC(=O)CN(C)S(=O)(=O)c2cnc[nH]2)cc1	inactive: -0.845%
Cc1cc(Cl)ccc1OCC(=O)N1CCC(c2nc3ccccc3s2)CC1	inactive: 8.18%
Nc1c(C(=O)Nc2cccc(F)c2)c2ccccn2c1C(=O)c1ccccc1	inactive: 19.3%
Cc1cccc(C(=O)Nc2ccc3nc(SCCOc4ccccc4)sc3c2)c1	inactive: 18.7%
COc1ccc(CCNc2nc(SCc3ccc(Cl)cc3)nc3ccccc23)cc1OC	inactive: -11.2%
Nc1ncc(S(=O)(=O)Nc2ccc(F)cc2F)cn1	inactive: 0.189%
CCc1cnc2c(c1SCC(=O)NCc1ccc(F)cc1)c(=O)n(C)c(=O)n2C	inactive: -3.78%
COc1ccc(C2C=C(c3ccccc3)Nc3nc(NC(=O)/C=C/c4ccccc4Cl)nn32)cc1 (stereo unspecified)	inactive: -0.513%
COc1ccc(NC(=O)CN2C(=O)COc3ccc(S(=O)(=O)N4CCCCC4)cc32)cc1OC	inactive: 8.58%
Cc1cc(C)c2c(c1)c(C)cc1nnc(SCC(=O)c3ccc(F)cc3)n12	inactive: -2.22%
COC(=O)c1ccccc1NC(=O)Cn1c(=O)cc(C)c2c(C)nn(C)c21	inactive: -27.8%
Cc1ccc(C)c(Cn2c(C(=O)O)c(CNCc3cccs3)c3ccccc32)c1	inactive: 8.89%
COc1ccc(N2CCN(C(c3ccccc3F)c3sc4nc(-c5ccco5)nn4c3O)CC2)cc1 (stereo unspecified)	inactive: 5.1%
CCOC(=O)c1c(NC(=O)COc2cccc(C)c2C)sc(C(C)=O)c1C	inactive: 6.78%

Compound	activity change, negative = cytotoxicity
COc1ccc(Cl)cc1NC(=O)Cn1c(=O)c(-c2ccccc2NC(C)=O)nc2ccccc21	inactive: 1.58%
COc1ccc(OC)c(CNS(=O)(=O)c2ccc(-c3coc(C)n3)cc2)c1	inactive: -6.53%
CC(=O)c1cc(-c2ccccc2)n(CC(=O)Nc2ccc(C)c(C)c2)c1C	inactive: -21.5%
COc1ccccc1-c1noc(-c2ccc(NC3CCCC3)c([N+](=O)[O-])c2)n1	inactive: -7.85%
Cc1cc2nc(-c3ccc(NC(=O)c4ccccc4F)cc3)oc2cc1C	inactive: -1.57%
CCOc1ccc(CNC(=O)CS(=O)(=O)c2cccc3nsnc23)cc1	inactive: -0.653%
COc1ccccc1-c1nc(SCC(=O)NCc2ccccc2)c2c(=O)n(C)c(=O)n(C)c2n1	inactive: 5.36%
COCCNC(=O)c1ccc2nc(Cc3ccccc3)oc2c1	inactive: -1.33%
CC(C)N(CCCNC(=O)Cn1ncc2c([nH]c3ccccc32)c1=O)Cc1ccccc1	inactive: 7.88%
Cc1ccc(Nc2nnc(-c3ccc(C)c(S(=O)(=O)N4CCOCC4)c3)c3ccccc23)cc1	inactive: 3.97%
Cc1cc(C)c2c(=O)cc(C(=O)Nc3sc4c(c3C(=O)NCC3CCCO3)CCCC4)oc2c1 (stereo unspecified)	inactive: 8.72%
COc1ccc(C)cc1NC(=O)CC1NCCNC1=O (stereo unspecified)	inactive: -20.5%
CC(=O)c1ccc(N2CCN(c3ccc4cc(S(=O)(=O)N5CCCCC5)ccc4n3)CC2)cc1	inactive: 12.6%
CCOC(=O)c1ccc(NC(=O)CSc2nc3ccccc3c(=O)n2CCC(=O)NC2CCCCC2)cc1	inactive: 6.82%
COc1ccc(-c2nc(CS(=O)(=O)CC(=O)NCCc3ccc(C)cc3)c(C)o2)cc1	inactive: -1.22%
CCC(=O)C1=C(c2ccc(OC)c(OC)c2)N(C(=O)CC)n2c(nnc2-c2ccc(C)cc2)S1	inactive: 0.721%
CCCOc1ccc(C2c3c(-c4c(C)cc(C)cc4O)n[nH]c3C(=O)N2CCO)cc1 (stereo unspecified)	inactive: 2.51%
Cc1ccc(Cl)cc1NC(=O)c1sc(-n2nc(C)c(Cc3ccc4c(c3)OCO4)c2C)nc1C	inactive: -4.01%
CCOc1ccc(-c2cc3nc(C4CCN(C(=O)OC(C)(C)C)CC4)c(C(=O)Nc4cc(OC)ccc4OC)cn3n2)cc1	inactive: -4.12%
Cc1nn(C)c2c1c(-c1ccccc1)cc(=O)n2CC(=O)NC(C)c1ccccc1 (stereo unspecified)	inactive: -17.8%
Cc1ccc(Cl)cc1NC(=O)Nc1cccc(OCc2cc(=O)n3ccccc3n2)c1	inactive: 13.6%
COc1ccc(-n2c(-c3ccco3)nc3c(cnn3-c3ccccc3Cl)c2=O)cc1	inactive: 9.42%
CCCCCn1c(CN2CCN(c3ccc(OC)cc3)CC2)nc2c1c(=O)[nH]c(=O)n2C	inactive: -12.4%
O=C(Cn1c(=O)n(-c2ccccc2)c(=O)c2c3c(sc21)CCCC3)Nc1ccc(F)cc1F	inactive: 5.89%

Compound	activity change, negative = cytotoxicity
COc1cccc(CNC(=O)c2cccc(-n3c(C)nc4cccnc43)c2)c1OC	inactive: -0.343%
Cc1cc(=O)n(Cc2ccc(Cl)cc2)c2c1c(C)nn2-c1ccccc1	inactive: 6.51%
COc1ccc(OC)c(S(=O)(=O)NCCS(=O)(=O)N2CCN(c3ccccc3)CC2)c1	inactive: 6.37%
O=C(CSc1cn(CC(=O)N2CCCCC2)c2ccccc12)Nc1ccccc1	inactive: 1.11%
COc1ccc(OC)c(C2=NS(=O)(=O)N(C)C(C(=O)Nc3ccc(F)cc3F)=C2)c1	inactive: -15.7%
Cc1ccc(C)c(NC(=O)C2CCCN(c3ncnc4onc(C)c34)C2)c1 (stereo unspecified)	inactive: -3.34%
Cc1nc(-c2ccccc2)sc1-c1ccc(SCC(=O)NCc2ccccc2Cl)nn1	inactive: -0.433%
O=C(NCc1noc2ccccc12)N1CCN(c2ccccc2)CC1	inactive: -1.84%
O=C(NCC(c1ccco1)S(=O)(=O)c1cccs1)c1ccc(F)c(F)c1 (stereo unspecified)	inactive: -27.2%
CCc1ccccc1NC(=O)N1CCCn2nc(C)cc21	inactive: -1.1%
CCOC(=O)c1ccc(NC(=O)Cn2cc(C(=O)C3CC3)c3ccccc32)cc1	inactive: 7.96%
C=CCc1cccc2cc(-c3nc4ccc(C)cc4[nH]3)c(=O)oc12	inactive: 1.11%
COc1ccccc1CNC(=O)CCc1c(C)c2cc3c(C)c(C)oc3cc2oc1=O	inactive: -2.22%
COc1ccc(CCNC(=O)c2ccc3c(c2)N(Cc2ccc(F)cc2)C(=O)c2ccccc2S3(=O)=O)cc1OC	inactive: -5.84%
COc1cc(OC)cc(C(=O)Nc2ccc(-c3nc4ccccc4s3)cc2C)c1	inactive: 14.6%
COCC(=O)n1nc(-c2ccco2)nc1NCc1ccccc1Cl	inactive: -0.345%
CCOC(=O)c1ccc(NC(=O)CCCn2c(=O)c3cccn3c3ccccc32)cc1	inactive: 13.4%
Cc1ccccc1Nc1c(-c2c(F)cccc2Cl)nc2ccc(Br)cn12	inactive: 1.31%
Cc1c(C(=O)Nc2cccc(C(F)(F)F)c2)sc2nc[nH]c(=O)c12	inactive: -26.4%
COc1ccc(C(=O)/C=C/c2cn(CC(O)CN3CCc4ccccc43)c3ccccc23)cc1OC (stereo unspecified)	inactive: 5.4%
COCc1nnc(NC(=O)c2cc(OC)c(OC)c(OC)c2)s1	inactive: -6.27%
Cc1ccc(NC(=O)C2CCCN(S(=O)(=O)c3c(C)n[nH]c3C)C2)c(C)c1 (stereo unspecified)	inactive: -6.02%
COc1cccc(CNS(=O)(=O)c2cnc(N)nc2)c1	inactive: 12.4%
CC1CCCN(c2cc3c(cc2F)c(=O)c(S(=O)(=O)c2cccc(Cl)c2)cn3Cc2ccccc2)C1 (stereo unspecified)	inactive: -3.19%

Compound	activity change, negative = cytotoxicity
O=C(Nc1c(C(=O)N2CCN(c3ccccc3F)CC2)oc2ccccc12)c1cccc(F)c1	inactive: 1.79%
CC(C)NC(=O)c1ccc(Cn2c(SCc3ccc(F)cc3)nc3cccnc32)cc1	inactive: -15.5%
O=C(CCn1c(=O)c2cccn2c2cccnc21)N1CCN(c2cccc(C(F)(F)F)c2)CC1	inactive: 1.19%
COc1ccc(CCNC(=O)C(=O)NCC(c2ccco2)S(=O)(=O)c2ccc(C)cc2)cc1 (stereo unspecified)	inactive: -25.6%
COc1ccc(NC(=O)C(NS(=O)(=O)c2cccc3nsnc23)C(C)C)cc1 (stereo unspecified)	inactive: 12.1%
O=C(Cn1c(=O)oc2cc(S(=O)(=O)NCc3ccccc3)ccc21)Nc1cccc(F)c1	inactive: 9.16%
COC(=O)c1ccc(C2Nc3c(C)cccc3-c3cc(C)nn32)cc1 (stereo unspecified)	inactive: -22.9%
COc1ccccc1CNc1nc2c(S(=O)(=O)c3ccc(C)c(C)c3)nnn2c2ccc(Cl)cc12	inactive: 1.6%
O=C(c1ccc(F)cc1)c1cn(Cc2ccccc2)c2cc3c(cc2c1=O)OCO3	inactive: -7.63%
CCOC(=O)c1c(NC(=O)c2cc(-c3ccc(Br)cc3)on2)sc(C(C)=O)c1C	inactive: -1.59%
COc1ccc(NC(=O)c2cc3ccccc3o2)c(OC)c1	inactive: 7.22%
COc1cc(C(=O)Nc2ccc(NC(=O)c3ccc(C(C)(C)C)cc3)cc2)cc(OC)c1OC	inactive: -21%
O=C(COCc1cc(-c2cccs2)on1)N1CCN(c2ccccc2)CC1	inactive: -6.28%
CCC(C(=O)NCc1cc(OC)ccc1OC)n1nc(C)c2sc3ccccc3c2c1=O (stereo unspecified)	inactive: 12.4%
COc1cccc(C(=O)N2CCC(C(=O)Nc3cccc(Cl)c3)CC2)c1	inactive: 0.988%
Cc1cccc(CNC(=O)c2ccc(N3Cc4ccccc4Oc4ncccc43)s2)c1	inactive: -10.3%
CN(C)c1cccc(C(=O)N2CCC(c3c[nH]c4ccccc34)(c3c[nH]c4ccccc34)CC2)c1	inactive: -10.5%
COc1ccc(OC)c(CNC(=O)C2CCCN(c3ncnc4onc(-c5ccc(F)cc5)c34)C2)c1 (stereo unspecified)	inactive: 2.7%
Fc1ccc(NCc2nnc3n2CCCCC3)cc1Cl	inactive: -1.44%
CC(C)c1ccc(N2C(=O)CSC23C(=O)N(Cc2cccc(F)c2)c2ccccc23)cc1 (stereo unspecified)	inactive: -20.1%
COc1cccc(C(=O)Nc2nc3nc(-c4ccccc4)cc(=O)n3[nH]2)c1	inactive: -1.3%
CC(=O)c1ccc(NC(=O)CN2C(=O)CN(C)C(=O)c3ccccc32)cc1	inactive: 19.7%
COc1cccc(CNC(=O)C2=C(C)C(=O)OC23CCN(C(C)=O)CC3)c1OC	inactive: -2%
COc1cc(Nc2nc(SCc3ccc(Cl)cc3)nc3ccccc23)cc(OC)c1	inactive: -12.5%
